Measurements published in PubChem BioAssay AID488969 (Vanderbilt High Throughput Screening Facility, 2010).
Whole data set: some 110,000 compounds, median “z-score” near -0.1, cut for the highest 2% near 2. The list shows a part of the results.

Target: Metabotropic glutamate receptor 8 (Rattus norvegicus) (UniProt P70579)
Experiment: mGluR8 Gi/Go-coupled signaling modulation – cell-based, rat, thallium flux, HTS, primary screen (AID 488969)
Conditions: HEK293 rat mGluR8, GIRK (G protein-gated inwardly rectifying potassium channel) thallium flux, FluoZin2; at 10 µM; stronger effect = higher value; submaximal glutamate (EC20) added with thallium

Chain of UniProt P70579 (P70579 whole entry, looked up): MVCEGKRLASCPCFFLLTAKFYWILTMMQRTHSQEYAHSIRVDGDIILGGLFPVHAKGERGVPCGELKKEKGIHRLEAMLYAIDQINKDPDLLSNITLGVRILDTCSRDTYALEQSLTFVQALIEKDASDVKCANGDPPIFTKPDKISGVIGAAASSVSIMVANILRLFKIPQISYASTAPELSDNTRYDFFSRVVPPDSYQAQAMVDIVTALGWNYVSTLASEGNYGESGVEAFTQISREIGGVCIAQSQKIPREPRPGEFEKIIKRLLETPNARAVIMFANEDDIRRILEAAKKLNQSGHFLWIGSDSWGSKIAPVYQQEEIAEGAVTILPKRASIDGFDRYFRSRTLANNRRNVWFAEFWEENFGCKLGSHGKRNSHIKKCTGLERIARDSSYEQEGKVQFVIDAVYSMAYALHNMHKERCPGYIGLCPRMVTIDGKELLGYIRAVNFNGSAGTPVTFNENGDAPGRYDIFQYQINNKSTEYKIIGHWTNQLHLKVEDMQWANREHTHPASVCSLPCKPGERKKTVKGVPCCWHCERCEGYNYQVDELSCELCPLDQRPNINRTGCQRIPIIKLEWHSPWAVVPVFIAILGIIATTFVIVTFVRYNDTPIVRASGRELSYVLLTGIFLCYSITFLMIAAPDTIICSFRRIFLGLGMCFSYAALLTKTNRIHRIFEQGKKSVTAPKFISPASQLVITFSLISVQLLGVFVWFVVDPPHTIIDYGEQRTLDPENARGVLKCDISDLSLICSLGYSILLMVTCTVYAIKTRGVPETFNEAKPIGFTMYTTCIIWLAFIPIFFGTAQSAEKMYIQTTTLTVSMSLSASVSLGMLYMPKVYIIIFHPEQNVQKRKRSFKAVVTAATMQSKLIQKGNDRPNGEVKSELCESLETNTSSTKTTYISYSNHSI

Compound | z-score
CC12CCC(C(=O)Nc3nccs3)(OC1=O)C2(C)C (stereo not given) | -0.842
CCOC(=O)c1oc2ccccc2c1N | -0.0615
Cc1ccc(S(=O)(=O)N2CCN(C(=O)c3cc(=O)[nH]c4ccccc34)CC2)c(C)c1 | -0.79
COc1ccc(-c2nc(-c3cccc(C)c3)no2)cc1OC | 1.7
O=C(NCc1ccco1)c1cc2cc3ccc(Cl)cc3nc2o1 | -0.249
CC(C)CNS(=O)(=O)c1ccc(OCC(=O)Nc2ccc3c(c2)OCO3)c(Cl)c1 | -0.19
O=C(c1cc(Cl)ccc1Cl)N1CCN(c2ccccn2)CC1 | 0.601
Cc1ccc(C(=O)N/C(=C\c2cccs2)C(=O)N2CCCCCC2)cc1 | -0.422
CC(C)CC(=O)NC(=S)Nc1ccccc1C(=O)Nc1ccccc1 | -0.037
COc1ccc(-c2oc(/N=C/N3CCOCC3)c(C#N)c2-c2ccc(OC)cc2)cc1 | 0.0409
O=C(CSc1nc2ccccc2s1)NCCOc1ccccc1 | 0.279
CCC(C)(c1nnnn1-c1c(C)cccc1C)N(N=O)c1cccc(C(F)(F)F)c1 (stereo not given) | 0.17
Cc1cc(=O)[nH]c(Cc2ccc(OC(C)C)cc2)n1 | -0.0361
CCc1cc(=O)oc2c(C)c(OCC(=O)N3CCCc4ccccc43)ccc12 | -1.19
CCc1nc(N)c(C#N)c(-c2ccncc2)c1C | 0.0413
COC(=O)C(Cc1ccc(O)cc1)NC(=O)C(C)Oc1ccccc1 (stereo not given) | -0.425
CCC1(CC)C(=O)C(C)(C)C(=O)OC1c1ccccn1 (stereo not given) | 0.852
CCCCc1nn(-c2cc(Cl)ccc2OC)c2c1C(=O)CCC2 | -1.66
FC(F)(F)c1cc(-c2cccs2)nc2cc(-c3ccccc3)nn12 | -0.089
CC(=O)N1CCC(C(=O)Nc2nc(-c3ccccc3)ns2)CC1 | -0.0333
CO/N=C(/CS(=O)(=O)c1ccc(Br)cc1)c1ccc(OC)cc1 | -0.272
COc1ccc(N2CCN(C(=O)c3c(-c4ccccc4)noc3C)CC2)cc1 | -0.306

Compound | z-score
COc1ccc(-c2[nH]n(-c3ccc([N+](=O)[O-])cc3)c(=O)c2C=NCc2ccncc2)cc1 | -0.276
Cc1ccc2nc(NC(=O)CSc3ncnc4c3oc3ccccc34)sc2c1 | 0.762
COc1ccc2[nH]c(=O)c(CN(C(=O)c3ccccn3)C3CCCCC3)cc2c1 | -0.107
Cc1csc(SCC(=O)c2c(N)n(CC(C)C)c(=O)n(C)c2=O)n1 | 0.102
Cc1ccc(C(Sc2ccccc2)C(Cn2cncn2)C(=O)c2ccccc2)cc1 (stereo not given) | -0.241
O=[N+]([O-])c1ccc(NC(=S)N2CCN(c3ccccc3)CC2)cc1 | 0.107
CS(=O)(=O)N(CC(=O)Nc1cc(Cl)ccc1Cl)c1ccccc1Cl | -0.755
COc1ccc(S(=O)(=O)Cc2ccc(C(=O)NCc3ccc(F)cc3)o2)cc1 | -0.0534
CC(=O)Nn1cnc2c(c1=O)C1(CCCC1)Cc1ccccc1-2 | 0.316
C[C@@H](C(=O)Nc1nc(-c2ccccn2)cs1)N1C(=O)C2CCCCC2C1=O (stereo not given in full) | 0.256
CCOC(=O)c1cccc(NC(=O)C2CCN(S(=O)(=O)c3cnc[nH]3)CC2)c1 | -0.0462
COc1ccc(OC)c(-c2nc3c(C)n[nH]c(=O)c3[nH]2)c1 | 0.548
Cc1cccc(N2CCN(CC(=O)Nc3nccs3)CC2)c1C | 0.000429
COc1ccc(S(=O)(=O)NC2CCCCC2)c(C)c1C | -1.03
O=C(Nc1cccc(NC(=O)c2cccs2)c1)c1ccco1 | -0.313
O=C(CCn1nc(-c2ccccc2)ccc1=O)NCCCN1CCCCCC1 | 0.133
O=C(NC(NC(=S)Nc1ccccc1Cl)C(Cl)(Cl)Cl)c1cccc(Cl)c1 (stereo not given) | -0.0238
O=C(c1ccc(-n2cnnn2)cc1)N1CCCCC1 | 0.294
COc1ccc(NC(=S)NNC(=O)Cn2nc([N+](=O)[O-])cc2C)cc1 | -1.44
Nc1ccc(-c2cc(-c3ccc(N)cc3)nc(-c3ccccc3)n2)cc1 | -0.15
Cc1ccc(S(=O)(=O)Nc2ccccc2CNc2ncc(Br)cc2Br)cc1 | 0.00788
CC1CCN(S(=O)(=O)c2ccc(NC(=O)CSc3nnnn3C)cc2)CC1 | 1.64

Compound | z-score
COc1ccc(C2CC(=O)C(C=NCCN3CCN(C(C)=O)CC3)=C(O)C2)cc1 (stereo not given) | -0.0865
CN(C)C(CNS(=O)(=O)c1ccc(Br)cc1)c1cccnc1 (stereo not given) | 1.24
O=C(Nc1nc(-c2ccco2)c(-c2ccco2)s1)C1CCC1 | -0.47
COC(=O)c1ccc(N2C(=O)c3ccc(OC)c(OC)c3C2=O)cc1 | -0.174
CCOc1ccc(C2C(C#N)=C(C)NC3=C2C(=O)c2ccccc23)cc1 (stereo not given) | 0.179
O=C(CNc1ccc2ccccc2c1)N/N=C/c1ccc([N+](=O)[O-])o1 | -0.0765
O=C(CSc1ncn[nH]1)NCc1ccccc1 | 0.318
CCOc1ccc(S(=O)(=O)Nc2cc(Cl)ccc2O)cc1 | -0.191
CCCCOC(=O)C[N+](C)(C)CCOC1CC2CCC1(C)C2(C)C (stereo not given) | -0.137
O=C(COc1ccccc1F)NC1CCN(Cc2ccccc2)CC1 | 0.587
COc1ccc(-n2nnnc2-c2cnc(N3CCCC3)nc2C(F)(F)F)cc1 | -0.837
COc1ccc(-c2nnc(SCC(=O)c3ccc[nH]3)o2)cc1 | 0.399
Oc1ccc(N2CCN(C(c3cccs3)c3nnnn3CCc3ccccc3)CC2)cc1 (stereo not given) | -0.146
Cc1onc(-c2ccccc2)c1C(=O)Nc1ccc(OC(C)C)cc1 | 0.23
Cc1[nH]c2ccccc2c1C1(O)C(=O)N(C(C)C)c2ccccc21 (stereo not given) | 0.246
Cc1cccc(N2CCN(C(=O)c3cccn4c(=O)c5c(C)c(C)sc5nc34)CC2)c1C | 0.451
COc1ccccc1CNCc1cccs1 | 0.411
CC(C)OC(=O)NCCOC(=O)Nc1ccc(Cl)c(Cl)c1 | -0.143
COc1ccccc1NC(=O)N1CCCC1C(=O)NCc1ccccc1F (stereo not given) | -0.0827
Cc1cc(C)c(-c2cc(NC(=O)CSc3n[nH]c(N)n3)n(-c3ccccc3)n2)cc1C | -0.577
COc1ccc(CC(=O)NC2CCN(CC(=O)Nc3ccc4c(c3)OCCO4)CC2)cc1OC | -0.282
O=C1CN(C(=O)C2CC2)c2ccccc2N1 | -0.128

Compound | z-score
CNc1nc(NCCOC23CC4CC(CC(C4)C2)C3)nc(OCC(F)(F)F)n1 | -0.244
CCn1c(=O)c(C(=O)Nc2nc3ccccc3[nH]2)c(O)c2ccccc21 | -0.711
Cc1ccnc2nc(C(=O)Nc3ccc(N4CCOCC4)cc3)nn12 | 0.0976
CN1CCN(c2cc(-c3ccccc3)nc3cc(-c4ccc(F)cc4)nn23)CC1 | 0.281
CCOc1ccc(NC(=O)CN2CC(c3ccccc3)CC2=O)cc1 (stereo not given) | -0.314
Cc1ccccc1Cn1c(=O)c2c(nc3n2CCCN3Cc2ccccc2)n(C)c1=O | -0.761
CC(NC(=S)Nc1ccc(Cl)cc1)C(c1ccccc1)N1CCOCC1 (stereo not given) | 0.0913
CCOc1ccc(NC(=O)CS(=O)(=O)c2cn(CC)c3ccccc23)cc1 | 0.00496
Cc1ccc(OCCNC(=O)/C=C/c2ccccc2)cc1C | -0.203
Cc1cccc(NC(=O)CC(C)(C)C)c1 | 0.727
Cc1ccc(CSc2nnc(CC(=O)Nc3ccc(C)cc3)n2C)cc1 | -0.273
C/C(=N/NC(=O)c1cccs1)c1ccc(NC(=O)COc2ccc(Cl)cc2Cl)cc1 | -0.27
COC(=O)C1CC(=O)c2sccc2C1 (stereo not given) | -0.259
N#CN=C(N)c1ccccc1 | -1.18
CCOCCCNC(=O)c1ccc(N(C)S(=O)(=O)c2ccc(OC)cc2)cc1 | -0.0655
Cc1cc(C)c(S(=O)(=O)n2ccc3ccccc32)c(C)c1 | -0.0712
CCN1CCCn2c1nc1c2c(=O)n(C)c(=O)n1C | -0.0457
CC(Sc1nnc(-c2cccs2)n1-c1ccccc1)C(=O)NCc1ccco1 (stereo not given) | -0.428
COC(=O)c1ccc(C2C(C#N)=C(N)Oc3cc(C)n(C)c(=O)c32)cc1 (stereo not given) | -0.103
O=C(c1ccc(N2CCOCC2)nc1)N1CCOCC1 | -0.105
CCN(CC)CCN(CC)Cc1ccccc1Br | 0.52
CCc1nc(N[C@@H](CC(C)C)C(=O)O)c2oc3ccccc3c2n1 | -0.731

Compound | z-score
COc1ccc(NC(=O)Cn2c(-c3ccccc3)cn(-c3ccc(C)cc3)c2=O)cc1 | -0.126
COCc1cc(Sc2ccc(Cl)cc2Cl)nc(-c2ccccc2)n1 | -0.0583
C=CCn1c(SCC(=O)c2c(N)n(C)c(=O)n(C)c2=O)nc2sc(C)c(C)c2c1=O | -0.369
COc1nc(NCc2ccc(Cl)cc2)nc(OC)n1 | 0.461
CCCCOC(=O)c1ccc(NC(=O)C(CCS(C)(=O)=O)NC(C)=O)cc1 (stereo not given) | -0.251
CC(NC(=O)C1CCC1)c1ccc(Cl)cc1 (stereo not given) | -0.336
C#CCSc1nnc(-c2ccc(C)cc2)o1 | -0.00284
CC(C)CNC(=O)CSc1nc2scc(-c3ccccc3)c2c(=O)[nH]1 | -0.437
CCN(Cc1ccccc1)C(c1cc2ccc(C)cc2[nH]c1=O)c1nnnn1CCOC (stereo not given) | -0.0392
CCCN1C(=O)C2C(C(=O)Nc3cccc(OC)c3)C3C=CC2(O3)C1C(=O)NC1CCCCC1 (stereo not given) | -0.461
COc1ccc(CNC(=O)Cn2cnc3c(=O)n(C)c(=O)n(C)c32)cc1 | -0.0364
COc1ccc(N(C)S(=O)(=O)c2cccc(C(=O)OC(C(=O)Nc3cc(C)cc(C)c3)c3ccccc3)c2)cc1 (stereo not given) | 0.055
O=C(/C=N/O)NCCCN1CCOCC1 | -0.0436
Cc1ccc2[nH]cc(C(=O)CN3CCOCC3)c2c1 | -0.264
CC1CC(C)CN(C(=O)c2cc(-c3ccccn3)nc3ccccc23)C1 (stereo not given) | -1.27
N#C/C(=C\c1ccc[nH]1)S(=O)(=O)c1ccccc1 | 0.0633
CN(C)S(=O)(=O)c1cccc(C(=O)NCc2cccs2)c1 | -0.326
O=c1ccn(CCOc2ccc(Cl)cc2)c(=O)[nH]1 | 0.0702
CCN(CC)CCN1C(=O)C(=O)/C(=C(/O)c2cnn(-c3ccccc3)c2C)C1c1cccs1 (stereo not given) | -0.117
COc1ccc(NC(=O)C2CC(=O)NC3=C2C(=O)CC(C)(C)C3)cc1 (stereo not given) | 0.113
Cc1[nH]n(-c2ccccc2)c(=O)c1/C=N/Nc1nncc(-c2ccccc2)n1 | 0.498
Cc1cccc(NC(=O)C2=C(O)c3ccccc3N(C)S2(=O)=O)c1 | -0.316
